Experimental data from PubChem BioAssay AID1030 (National Center for Advancing Translational Sciences (NCATS), 2008).
Screen size: about 220,000 compounds; about 16,000 (7.3%) were called active. This list was built around the results that the source calls inconclusive (neither active nor inactive); the mix of calls is not that of the screen. Calls follow the shape of the dose curve; as a rule, active = well fitted inhibition curve with a large enough effect (not every such curve was filed as active); inconclusive = small, poorly fitted or top-dose-only effect, or another doubt; inactive = no such curve, though single readings can be large or run the other way. A potency beside an inconclusive call is a rough fit, not a confirmed value.

Biological target: Aldehyde dehydrogenase 1A1 (Homo sapiens) (UniProt P00352)
Assay: qHTS Assay for Inhibitors of Aldehyde Dehydrogenase 1 (ALDH1A1)
Settings: Purified ALDH1A1, NADH fluorescence, propionaldehyde substrate; series mostly up to 75.3 µM
Potency is read from the fitted curve at half-maximal effect; tags tell the direction and shape of the fitted curve.

UniProt P00352, sequence (P00352 whole entry, looked up): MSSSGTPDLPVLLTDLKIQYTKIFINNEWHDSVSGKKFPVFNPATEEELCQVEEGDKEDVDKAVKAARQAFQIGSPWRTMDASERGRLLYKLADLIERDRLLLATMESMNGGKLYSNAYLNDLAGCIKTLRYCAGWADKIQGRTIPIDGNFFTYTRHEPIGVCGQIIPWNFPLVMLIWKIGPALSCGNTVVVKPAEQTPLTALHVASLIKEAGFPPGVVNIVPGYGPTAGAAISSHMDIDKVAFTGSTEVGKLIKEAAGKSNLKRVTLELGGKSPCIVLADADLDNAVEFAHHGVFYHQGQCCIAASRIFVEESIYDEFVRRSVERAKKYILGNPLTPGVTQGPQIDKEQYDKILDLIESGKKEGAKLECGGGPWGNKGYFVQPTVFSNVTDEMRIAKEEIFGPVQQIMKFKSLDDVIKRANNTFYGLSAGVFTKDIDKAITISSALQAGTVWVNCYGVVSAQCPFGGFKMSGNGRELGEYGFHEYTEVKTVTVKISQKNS

Potency, inactive:
COc1ccc(C2=CC(=O)N(Nc3ccccc3)C2=O)cc1
COc1ccccc1CCn1c(=O)c(-c2ccc(F)c(F)c2)nc2cncnc21
C=CCNc1scc(-c2ccccc2)[n+]1CC=C
CCOC(=O)C1CCCN(C(=O)Nc2ccccc2)C1 (stereo unspecified)
Cc1cc(Nc2cccc([N+](=O)[O-])c2)n2c(nc3ccccc32)c1C#N
O=C(O)CCn1nnc(-c2cccs2)n1
Cc1ncc(CCl)c2c1OC(C)(C)OC2

Potency, active:
S=c1nc[nH]c2c1sc1nc(-c3ccccc3)c3c(c12)CCCC3 2.51 µM
Cn1c(NC(=O)Cc2cccc3ccccc23)cc(=O)n(C)c1=O 14.1 µM
COc1ccc(C2C(C#N)=C(N)OC3=C2C(=O)CC(C)(C)C3)cc1 (stereo unspecified) 4.47 µM
CCOCCCNC(=O)/C(C#N)=C/c1cc(OC)c(O)c([N+](=O)[O-])c1 12.6 µM
COc1ccc(OC)c(N2C(N)=NC(N)=NC23CCCC3)c1 22.4 µM
CC1(C)NC(C)(C)c2nonc2/C1=N\O 12.6 µM
Cn1c(=O)c2c(nc(CN3CCN(C(=O)c4ccco4)CC3)n2Cc2ccccc2)n(C)c1=O 12.6 µM

Potency, inconclusive:
COc1cccc(C(=O)COc2ccc3ccc(=O)oc3c2)c1 44.7 µM [inhibitor, single point]
CCOC(=O)CNC(c1ccccc1)c1cc(Br)ccc1NC(=O)CCN1CCOCC1 (stereo unspecified) 7.08 µM [inhibitor, single point]
COC(=O)c1ccccc1COn1c(=O)c[n+]([O-])c2ccccc21 39.8 µM [inhibitor, single point]
COc1ccc(OC)c2[nH]c(=O)c(CCNC(=O)c3ccc(Br)o3)cc12 31.6 µM [inhibitor, single point]
COC(=O)c1[nH]c2ccc(C)cc2c1NC(=O)CN1CCCc2ccccc21 25.1 µM [inhibitor, partial curve]
CCN(CC)CCCC(C)Nc1c2ccc(Cl)cc2nc2ccc(OC)cc12 (stereo unspecified) 39.8 µM [inhibitor, single point]
COc1ccc(OC)c(NC(=S)N2CCN(Cc3ccccc3)CC2)c1 39.8 µM [inhibitor, single point]
CCOC(=O)Cc1csc(NC(=O)c2ccoc2C)n1 39.8 µM [inhibitor, single point]
COc1ccc(/C=C/c2cc(OC)cc(=O)o2)cc1 39.8 µM [inhibitor, single point]
CCC1=NNc2cccc3c(OC)ccc1c23 31.6 µM [inhibitor, single point]
CC1Cc2ccccc2N1C(=O)COC(=O)Cn1cnc2ccccc2c1=O (stereo unspecified) 39.8 µM [inhibitor, single point]
COCCCNC(=S)NNC(=S)NCCCOC 25.1 µM [inhibitor, single point]
COc1ccc(OC)c(/C=N/NC(=O)c2cc(-c3ccc(C)o3)nc3ccccc23)c1 28.2 µM [inhibitor, single point]
CCOC(=O)N1CCc2c(sc(NC(=O)c3ccc(S(=O)(=O)N4CCCC4)cc3)c2C#N)C1 31.6 µM [inhibitor, single point]
O=C(O)CN(c1ccccc1)C1SC(=O)NC1=O (stereo unspecified) 39.8 µM [inhibitor, single point]
Nc1ccc2nn(-c3ccccc3)nc2c1 28.2 µM [inhibitor, partial curve]
COC(=O)c1nnn(-c2nc(N3CCOCC3)nc(N3CCOCC3)n2)c1C 39.8 µM [inhibitor, single point]
Cc1ccc(S(=O)(=O)Cc2ccc(C(=O)NCCCN3CCCC3=O)o2)cc1 39.8 µM [inhibitor, single point]
COc1ccccc1NC(=O)Cn1nc(-c2ccc3c(c2)OCCO3)ccc1=O 8.91 µM [inhibitor, single point]
O=C(CNC(=S)NC(=O)c1cccc([N+](=O)[O-])c1)c1ccccc1 17.8 µM [inhibitor, partial curve]
O=C1CCCc2sc3c(c2N1)CCCCC3 44.7 µM [inhibitor, single point]
CC1=CC(C)(C)N(C(=O)CSc2nnc(N)s2)c2c(C)cc(C)cc21 39.8 µM [inhibitor, single point]
O=C(Nc1c(F)cccc1F)c1cnc(N2CCN(c3ccccn3)CC2)c2ccccc12 35.5 µM [inhibitor, single point]
O=C(c1cncc(Br)c1)N1CCN(c2ccc([N+](=O)[O-])cc2)CC1 14.1 µM [inhibitor, partial curve]
Cc1cc(-c2ccc(C(=O)O)s2)cnc1N 3.55 µM [inhibitor, full curve]
COc1ccc(C2CC(c3cccs3)=NN2C(=O)c2ccc(Br)o2)cc1 (stereo unspecified) 17.8 µM [inhibitor, partial curve]
CC(=O)c1ccc(-c2ccc(C(=O)NC3CCCCCC3)o2)cc1 31.6 µM [inhibitor, partial curve]
COc1ccc2cnnc(SCC(=O)Nc3ccccc3)c2c1OC 39.8 µM [inhibitor, single point]
COc1ccc(S(=O)(=O)n2cnc3cc(C)c(C)cc32)cc1 39.8 µM [inhibitor, single point]
Cc1ccc(OCC(=O)N(C)Cc2ccccc2)c([N+](=O)[O-])n1 25.1 µM [inhibitor, single point]
Cc1cc(N=Cc2c(O)ccc3ccccc23)no1 22.4 µM [inhibitor, partial curve]
Cn1c(=O)[nH]c(=O)c2c1nc(SCCN1CCCCC1)n2CCCc1ccccc1 39.8 µM [inhibitor, single point]
